Among all 310,000 compounds or so, about 2,200 (0.71%) showed an effect of 50% or more. The effect is printed as a negative number. The list shows a part of the results.

The assay deals with human ether-à-go-go-related gene (hERG) potassium channel (human, UniProt Q12809). In words: primary screen, population patch clamp on CHO cells stably expressing hERG.
human ether-à-go-go-related gene (hERG) potassium channel, sequence (Q12809 whole entry, looked up): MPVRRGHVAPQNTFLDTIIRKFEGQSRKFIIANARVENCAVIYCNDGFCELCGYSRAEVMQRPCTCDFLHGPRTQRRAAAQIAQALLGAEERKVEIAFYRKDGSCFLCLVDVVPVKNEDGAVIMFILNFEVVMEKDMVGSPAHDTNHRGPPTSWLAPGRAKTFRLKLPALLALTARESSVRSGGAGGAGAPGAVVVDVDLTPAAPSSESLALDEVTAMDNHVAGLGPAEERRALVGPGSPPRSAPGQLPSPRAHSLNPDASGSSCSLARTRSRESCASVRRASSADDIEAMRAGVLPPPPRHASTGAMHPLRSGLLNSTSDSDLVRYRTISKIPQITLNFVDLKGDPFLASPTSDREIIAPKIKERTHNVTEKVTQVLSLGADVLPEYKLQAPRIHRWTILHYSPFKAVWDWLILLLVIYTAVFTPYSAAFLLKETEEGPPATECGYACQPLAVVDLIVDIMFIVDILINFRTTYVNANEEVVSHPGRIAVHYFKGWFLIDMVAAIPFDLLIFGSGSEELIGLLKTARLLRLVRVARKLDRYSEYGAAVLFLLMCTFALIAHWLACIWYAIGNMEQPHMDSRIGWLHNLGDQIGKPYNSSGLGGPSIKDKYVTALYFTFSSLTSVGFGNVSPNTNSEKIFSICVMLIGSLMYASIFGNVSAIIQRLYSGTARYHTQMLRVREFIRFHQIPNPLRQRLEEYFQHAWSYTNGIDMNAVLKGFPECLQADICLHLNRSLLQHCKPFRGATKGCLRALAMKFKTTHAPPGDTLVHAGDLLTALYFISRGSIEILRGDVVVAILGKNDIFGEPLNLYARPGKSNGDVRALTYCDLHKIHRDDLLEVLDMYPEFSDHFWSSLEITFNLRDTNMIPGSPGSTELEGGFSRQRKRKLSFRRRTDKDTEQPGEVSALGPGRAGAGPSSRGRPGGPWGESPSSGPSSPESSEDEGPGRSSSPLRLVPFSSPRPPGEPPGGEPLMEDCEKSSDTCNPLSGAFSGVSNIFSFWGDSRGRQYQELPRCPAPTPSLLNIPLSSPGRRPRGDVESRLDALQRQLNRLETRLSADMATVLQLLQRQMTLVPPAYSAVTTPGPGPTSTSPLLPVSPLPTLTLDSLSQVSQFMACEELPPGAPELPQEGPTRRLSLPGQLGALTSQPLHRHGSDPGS
As for `NC(=O)c1ccc(-n2nnnc2SCC(=O)Nc2ccccc2-c2ccccc2)cc1`, the “hERG current change (%, negative = inhibition) at 1uM” value is -5.78%.

Consider `Cc1ccc(CO/N=C/C2=C(Cl)c3ccccc3CC2)cc1`, for which the “hERG current change (%, negative = inhibition) at 1uM” value was determined as 14.5%. Next, `O=C(c1ccc2c(c1)OCO2)N1CCC2(CC1)Oc1ccc(F)cc1C(=O)C21CC(c2ccccc2)=NO1` (stereo not shown): 6.22%; `CC(=O)NS(=O)(=O)c1ccc(N2C(=O)c3ccccc3C2=O)cc1`: 6.43%; `COc1cc(NC(=O)Cn2c(C)cc3ccccc3c2=O)cc(OC)c1OC`: 12.5%. Next, `Cc1ccc(C(=O)NCc2ccco2)cc1Br`: -9.25%; `OCCC1CN(Cc2ccccc2-c2ccco2)CCN1Cc1ccccc1` (stereo not shown): 2.84%; `NC(=O)Cn1c(=O)n(CC(=O)N2CCCCC2)c(=O)c2sccc21`: 12.9%.

As for `CCc1cc(-c2n[nH]c(=S)n2C(C)c2ccccc2)cs1` (stereo not shown), the “hERG current change (%, negative = inhibition) at 1uM” value is -5.68%. On to `CCCC(c1nnnn1C(C)(C)C)N1CCN(C(=O)c2ccco2)CC1.Cl` (stereo not shown), for which the “hERG current change (%, negative = inhibition) at 1uM” value was 8.97%. Next, `COc1ccccc1NC(=O)Cc1noc(CN(C)Cc2cccs2)n1`: 2.1%. For `CCOc1cc(NC(=O)C(C)C)c(OCC)cc1NC(=O)Nc1ccccc1`, the “hERG current change (%, negative = inhibition) at 1uM” value was found to be 17.7%. With `CCN(CC)c1nc(Oc2ccc(=O)[nH]n2)nc(N2CCOCC2)n1`, the “hERG current change (%, negative = inhibition) at 1uM” value worked out at 13.3%. Consider `CCN/N=C(\Cc1nc2ccccc2[nH]1)c1ccccc1`, for which the “hERG current change (%, negative = inhibition) at 1uM” value turned out to be 13%. For `O=C(CN1CCN(Cc2ccccc2F)C1=O)NCCN1CCOCC1`, the “hERG current change (%, negative = inhibition) at 1uM” value worked out at 12.7%. Regarding `COC(=O)c1ccc(COc2ccc(/C=N/NC(N)=S)cc2)o1`, the “hERG current change (%, negative = inhibition) at 1uM” value worked out at 3.68%. For `O=C(c1ccc(N2C(=O)c3ccccc3C2=O)cc1)N1CCCCC1` the value was 8.83%; for `CC(C(=O)NCC1CCCCC1)N(C)Cc1ccc(Cl)cc1` (stereo not shown), 5.42%. Next, `CCc1c(C)nc2cc(-c3cc(OC)cc(OC)c3)nn2c1N1CCN(CCN2CCOCC2)CC1`: -0.755%. Take `Cc1cc(NS(=O)(=O)c2ccc(NC(=S)NC(=O)/C=C/c3ccccc3)cc2)no1`: the “hERG current change (%, negative = inhibition) at 1uM” value is listed as 4.78%.

Regarding `CCCN(CCC)c1nc(N)c(C#N)c(CC#N)c1C#N`, the “hERG current change (%, negative = inhibition) at 1uM” value is -0.637%. Consider `Cc1ccc(S(=O)(=O)N(C)C)cc1NC(=O)CCNC(=O)c1ccco1`, for which the “hERG current change (%, negative = inhibition) at 1uM” value is reported as 14.2%. For `COc1ccc(NC(=O)Cc2ccc(Cl)c(Cl)c2)cn1`, the “hERG current change (%, negative = inhibition) at 1uM” value amounted to 18.9%. For `Cc1cccc(CS(=O)(=O)Cc2ccc(C(=O)NCC3CCCO3)o2)c1` (stereo not shown) the value was -3%; for `CCOC(=O)C(=O)Nc1cc(C(=O)OC)cc(C(=O)OC)c1`, 8.83%; for `C/C(NCc1cccnc1)=C(\C#N)C(=O)NCc1ccccc1`, -2.85%. With `Cc1cc(=O)n(C)c(=O)n1CCCCCN1CCCC1.O=C(O)C(=O)O`, the “hERG current change (%, negative = inhibition) at 1uM” value is on record as 6.69%.

Consider `Nc1ccccc1Nc1cccc(C(F)(F)F)c1`, for which the “hERG current change (%, negative = inhibition) at 1uM” value amounted to 14.1%. With `NC(=O)C1CCN(C(=O)Nc2csc3ccccc23)CC1`, the “hERG current change (%, negative = inhibition) at 1uM” value was 8.81%.

Consider `O=C(O)c1ccc(S(=O)(=O)Nc2cccc(CP(=O)(c3ccccc3)c3ccccc3)c2)cc1`, for which the “hERG current change (%, negative = inhibition) at 1uM” value was 16%. Next, `O=C(COC(=O)c1ccc([N+](=O)[O-])cc1)Nc1cccnc1Cl`: 4.99%; `Cn1ccsc1=NC(=O)c1cc(S(=O)(=O)N2CCOCC2)ccc1Cl`: 11%; `CC(=O)Nc1sc2c(c1C(c1cccc(F)c1)N1CCN(CCO)CC1)CCCC2` (stereo not shown): -6.15%. On to `CSc1nc(N)nc(SCC(=O)c2ccc(C)cc2)c1C#N`, for which the “hERG current change (%, negative = inhibition) at 1uM” value came to 2.48%. For the compound `CN1CCN(C(=O)c2ccc(F)c(F)c2)CC1`, the “hERG current change (%, negative = inhibition) at 1uM” value stood at 7.94%. Turning to `CN(CCN(C)C(C)(C)C)C(=O)C(c1ccccc1)c1ccccc1`, the “hERG current change (%, negative = inhibition) at 1uM” value was 15.4%. For `COc1ccc(OC)c(C(=O)COC(=O)c2cc(C)oc2C)c1` the value was 15.4%; for `CC1CCN(c2ccccc2NC(=S)NC(=O)c2cccs2)CC1`, -3.67%; for `CC(CCN1CCOCC1)c1ccccc1` (stereo not shown), 14.7%. For `Cc1cc(NC(=O)c2ccccc2Cl)n(C(C)(C)C)n1` the value was 18.4%; for `CC(C)(C)c1ccc(OCc2cnc(Cl)s2)cc1`, 21.2%. For `CC(C)c1ccccc1NC1=NCCCS1` the value was 9.8%; for `Oc1cccc(/C=N/N2CCN(c3ccccn3)CC2)c1`, 8.81%. Turning to `Cn1c(=O)c2c(nc(Br)n2CCc2ccccc2)n(C)c1=O`, the “hERG current change (%, negative = inhibition) at 1uM” value came to 10.8%. Take `CCOC(=O)COc1cccc(C2NC(=O)c3ccccc3O2)c1` (stereo not shown): the “hERG current change (%, negative = inhibition) at 1uM” value is given as 8.13%.

Regarding `N#C/C(=C\c1ccccc1Br)C(=O)NC1CC1`, the “hERG current change (%, negative = inhibition) at 1uM” value is -1.11%.

`COc1ccc(C(=O)N2CCN=C2SC)cc1OC`: the “hERG current change (%, negative = inhibition) at 1uM” value came out at 1.76%. For `Cc1cc(=O)[nH]c2c(C)cc(S(=O)(=O)NCc3ccccc3)cc12` the value was 14.8%. Next, `COc1cccc(CN2CCNC(=O)C2CC(=O)NCCN2CCCCC2=O)c1` (stereo not shown): 11.5%; `CN(C)C=O.Cc1cc(C)n2nc(C(=O)OCC(=O)c3c[nH]c4ccccc34)nc2n1`: 5.74%; `CC(C)(C)n1nnnc1C(c1ccc(F)cc1)N1CCN(Cc2ccc3c(c2)OCO3)CC1` (stereo not shown): 3.33%. Next, `C/C(=N\NC(=O)C1CC1)c1cccs1`: 11%; `N#C/C(=C\c1cn[nH]c1-c1ccc(Cl)cc1)C(=O)NCc1ccccc1`: 6.78%. Turning to `CC(C)(C)c1nn(-c2ccccc2)c2[nH]c(=O)c(CNCc3ccc4c(c3)OCO4)cc12`, the “hERG current change (%, negative = inhibition) at 1uM” value is 18.4%. In the case of `Cc1ccc(C(=O)Nc2nc(-c3cc(Cl)sc3Cl)cs2)cc1`, the “hERG current change (%, negative = inhibition) at 1uM” value is given as 0.62%. For `CCC1CN(C(=O)N2CCC(C(=O)NCc3ccco3)CC2)c2ccccc2O1` (stereo not shown), the “hERG current change (%, negative = inhibition) at 1uM” value was found to be 8.76%.

`CCCN(CCC)C(=O)CSc1nc2ccccc2c(=O)n1C1CCCC1`: the “hERG current change (%, negative = inhibition) at 1uM” value was found to be 4.8%.

Turning to `Cc1c(CC(=O)N2C[C@H]3C[C@@H](C2)c2cccc(=O)n2C3)c(=O)oc2cc(O)c(Cl)cc12`, the “hERG current change (%, negative = inhibition) at 1uM” value worked out at 7.7%. `COc1cc(C)ccc1OCCCCN1CC(C)OC(C)C1.O=C(O)C(=O)O` (stereo not shown): the “hERG current change (%, negative = inhibition) at 1uM” value is recorded as -2.74%.

For the compound `C[N+]1(CC2COC3(CCCCC3)O2)CCCCC1.[I-]` (stereo not shown), the “hERG current change (%, negative = inhibition) at 1uM” value is 12.3%.

With `COc1ccc(N(C)C(=O)CN(C)S(=O)(=O)c2ccc3c(c2)c(=O)n(C)c(=O)n3C)c(OC)c1`, the “hERG current change (%, negative = inhibition) at 1uM” value stood at 5.95%. As for `COc1cccc(OC)c1OCCOCCn1cnc2ccccc2c1=O`, the “hERG current change (%, negative = inhibition) at 1uM” value stood at 12.5%. For `CC(C)(C)c1nc2c(s1)CCc1onc(-c3ccc(Br)cc3)c1-2` the value was 13.6%.

`O=C(NCc1ccco1)c1cccc(-c2nnc(-c3ccccc3)o2)c1`: the “hERG current change (%, negative = inhibition) at 1uM” value is given as -5.63%. Next, `O=c1[nH]c2cc3c(cc2cc1CN(CCCO)Cc1nnnn1Cc1ccc(F)cc1)OCO3`: 11.3%; `COc1ccc(OCC(=O)Nc2ncc3c(n2)CC(C)(C)CC3=O)cc1`: 7.43%. As to `Cc1ccc(C(=O)N2CCN(C(=O)CN3CCOCC3)C2)cc1`, the “hERG current change (%, negative = inhibition) at 1uM” value stood at 0.778%.

In the case of `CSCC[C@H](N)C(=O)NCC1CCC(C(=O)Nc2ccc3c(c2)OCO3)CC1` (stereo partly shown), the “hERG current change (%, negative = inhibition) at 1uM” value was 9.9%.

Regarding `COc1ccc(CSc2nnnn2-c2ccc(C(N)=O)cc2)cc1[N+](=O)[O-]`, the “hERG current change (%, negative = inhibition) at 1uM” value is reported as 15.7%. For `O=C(COC(=O)c1ccco1)NC1CCCC1` the value was 18.1%; for `O=C(Nc1nc2ccccc2s1)c1cnccn1`, 10.7%; for `COC(=O)c1ccc(NS(=O)(=O)NC(=O)c2c[nH]c3ccccc23)cc1`, 22.2%. In the case of `CCOCCCn1c(C)nc2c(c1=O)c1nc3ccccc3nc1n2CCC1=CCCCC1`, the “hERG current change (%, negative = inhibition) at 1uM” value stood at 2.83%. Regarding `CCc1ccc(NC(=O)CSc2nc3[nH]ncc3c(=O)[nH]2)cc1`, the “hERG current change (%, negative = inhibition) at 1uM” value stood at 13.9%. Turning to `CC(C)=CC(=O)O[C@H]1[C@@H]2[C@H](C)C(=O)O[C@@H]2C[C@@H](C)[C@@H]2[C@@H](O)CC(=O)[C@]21C`, the “hERG current change (%, negative = inhibition) at 1uM” value is recorded as 11.3%. For `COC(=O)c1cc(C(=O)c2ccc(Cl)cc2)n2c(=O)/c(=C\N(C)C)sc12` the value was 9.95%.

For `CCN1CCN(Cc2ccc(NC(=O)c3ccc(C)c(NC(=O)c4c[nH]c5cc(C(F)(F)F)ccc5c4=O)c3)cc2C(F)(F)F)CC1`, the “hERG current change (%, negative = inhibition) at 1uM” value is recorded as 11.9%. Next, `CC(C)CC(=O)/C(=C/c1ccc(N(C)C)cc1)n1cncn1`: 16.5%; `O=C(NCc1cccnc1)c1ccc(Cn2c(=S)[nH]c3ccc(Br)cc3c2=O)cc1`: 12.9%; `Cc1cccc(C(=O)Nc2ccc(C(=O)/C=C/c3cccnc3)cc2)c1`: 9.38%. For `Cc1ccc(C(=O)N/C(=C\c2ccc(-c3ccc(Br)cc3)o2)C(=O)NC2CCS(=O)(=O)C2)cc1` (stereo not shown) the value was 7.85%. For `O=C(NC1CCS(=O)(=O)C1)c1cccc(S(=O)(=O)N2CCCC2)c1` (stereo not shown) the value was 15.3%; for `O=C(CSc1n[nH]c(-c2cccnc2)n1)OC1CCCCC1`, 14.2%; for `Cc1ccc(-n2cccc2C(=O)NS(=O)(=O)c2ccc(C)cc2)cc1`, 1.73%. Consider `COc1ccccc1CN(Cc1nc2ccccc2c(=O)[nH]1)C(=O)Nc1ccccc1C`, for which the “hERG current change (%, negative = inhibition) at 1uM” value is on record as 10.1%. Next, `COc1ccc(-c2c(C(F)(F)F)oc3c(CN4CCN(C)CC4)c(O)ccc3c2=O)cc1`: 18.4%; `O=c1oc2cc(O)ccc2cc1-c1ccccc1`: 25.2%. Turning to `CN(Cc1cccc2cnccc12)C(=O)c1cc(COc2ccc(F)cc2Cl)on1`, the “hERG current change (%, negative = inhibition) at 1uM” value is 19.5%.

For the origin of these results see PMC4336329 (PLoS ONE, 2015).
